Over roughly 33,000 sequences, “E-score (-0.5 to 0.5)” has its median near -0.011; the highest 2% begin near 0.28. This is one part of the list.
biological target: T1, Gcr1 (UniProt P07261); experiment: PBM E-score (8-mer binding enrichment) (E-score (-0.5 to 0.5)); higher = stronger / more preferred TF binding; most listed sequences are background and not binding sites; conditions: protein concentration: 100 nM; construct: GST-full length
T1 sequence: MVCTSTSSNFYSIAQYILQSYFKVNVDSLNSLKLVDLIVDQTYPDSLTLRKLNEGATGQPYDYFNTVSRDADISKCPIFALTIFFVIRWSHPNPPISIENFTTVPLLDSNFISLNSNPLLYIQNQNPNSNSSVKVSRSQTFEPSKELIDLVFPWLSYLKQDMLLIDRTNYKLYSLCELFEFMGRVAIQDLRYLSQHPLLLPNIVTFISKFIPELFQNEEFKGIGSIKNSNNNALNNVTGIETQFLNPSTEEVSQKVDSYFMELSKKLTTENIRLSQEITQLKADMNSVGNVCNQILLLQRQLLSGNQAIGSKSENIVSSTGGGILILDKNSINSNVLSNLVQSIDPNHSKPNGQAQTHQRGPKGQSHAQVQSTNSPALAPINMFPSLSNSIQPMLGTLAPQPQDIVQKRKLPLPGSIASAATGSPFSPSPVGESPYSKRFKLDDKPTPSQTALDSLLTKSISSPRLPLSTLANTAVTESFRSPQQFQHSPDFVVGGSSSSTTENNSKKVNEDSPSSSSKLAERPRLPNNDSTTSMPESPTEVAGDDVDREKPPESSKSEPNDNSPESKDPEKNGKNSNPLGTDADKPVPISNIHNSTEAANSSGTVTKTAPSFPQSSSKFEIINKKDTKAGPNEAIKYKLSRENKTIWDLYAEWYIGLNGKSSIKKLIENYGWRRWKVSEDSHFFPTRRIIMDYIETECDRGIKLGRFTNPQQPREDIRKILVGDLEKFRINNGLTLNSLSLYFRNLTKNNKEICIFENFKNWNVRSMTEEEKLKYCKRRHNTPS
How it was run: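 The E-score, a modified Wilcoxon-Mann-Whitney statistic, was computed by the Universal PBM Analysis Suite for every ungapped eight-base word pooled with its reverse complement. Scans behind it were normalised with masliner after bound GST-tagged yeast transcription factors were detected with fluorescent anti-GST. The proteins, at about 100-200 nM, had been applied to universal all-10-mer Agilent arrays made double-stranded by primer extension.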

Sequence	PBM E-score
AGTTGACA	0.0291
ACCGCATA	0.118
CCGGCGTC	0.402
CTCGCGTC	0.061
CAATATAC	0.103
AGAACGCA	-0.122
TCGATCAA	-0.0338
TGAGCAAA	-0.229
AGAATTGC	-0.0582
AGTGCTAC	0.0355
CAAGCTGC	0.149
CCAAGGAC	-0.0288
CAATAACA	-0.0463
CTGTCTGA	0.0266
ATGTCCGC	-0.076
TCTGTCAA	-0.152
AGGTACAT	-0.0115
CCCTAGGA	-0.137
AATCACGA	0.0621
CGGTTTCC	0.102
CAACAGTC	-0.173
CTCGTATC	-0.0392

Sequence	PBM E-score
GAATTATC	-0.16
CCCCATCC	0.134
CACAAAAC	0.0927
ATGGTCCA	-0.101
ATAAGGTG	0.0714
GACATCGC	-0.127
TCGGACAA	-0.0183
TTAGATAA	-0.0353
CGTGCATA	-0.188
TATACTCA	-0.0337
ACGAACCC	0.0176
CCGAAGAA	-0.154
ATAGGAAA	-0.0777
AGTCCTTC	-0.24
GTGAGACA	-0.135
ATCCTATC	-0.1
GCCAAACC	-0.314
AGTCAGTA	-0.128
GCTCCTCA	-0.186
ATAATTTC	0.087
CGAGCGGC	-0.0893
CAAAGCAA	-0.00273

Sequence	PBM E-score
CCCATCCA	0.0935
CGATGCCG	0.145
ACCCCAAT	0.00286
GAGCTAAC	-0.217
AGTCAGTC	-0.229
AATTCCGG	0.28
ACTCAACC	-0.0901
GCCGGCCA	0.007
GTGTGAAA	-0.00747
ATCGAAGG	-0.272
ACGCTAAG	-0.0875
GGACAGGA	0.139
ATCACGAT	0.0992
GTAGTACA	-0.201
CGACCATC	-0.172
CATCCACA	0.239
AGTAACTC	-0.155
GTCCCACA	-0.105
AACTTGAG	-0.14
ATGTGCTA	-0.0108
CGATTTCC	-0.0185
CAGGTCAC	-0.047

Sequence	PBM E-score
ACGCTTTA	-0.2
TAATCTGA	-0.0766
GCCGTCGC	-0.338
CTATCTGA	0.128
CCCACCGA	-0.0806
GGCAGATA	-0.0763
AATGCTAA	0.206
GGCGATTA	-0.198
AGCAAAGG	-0.135
AGTGTGGG	-0.182
CAGGCGAC	-0.0539
GGTTAAGA	-0.155
ACGCAGAG	-0.141
AGTAAGAC	-0.0016
GTACGAGA	-0.0556
TCAGATCA	-0.238
ACATGACC	-0.0244
GGTGAAAC	-0.0576
ATTTCGAA	0.117
CTTGTCCC	0.00234
